B1: LINE1-full (parent)
chain: UACGUAGGUGGUUUUCCCCUGAUAGUGCUAAGGGGGCCUGGAAGUUUGGACUGGGCAGAGCUCAACACAGCGUGGCAAAGUGGCUGUGGCUAGACUGCCUCUCUGGAUUCCUCGUCACUCAGCAGGGCAUCUCUGAGAGAAAUGCC

The source gives no read counts; variants with many changes may rest on few reads.

The data set covers variants of B1. The experiment in a line: self-cleavage, relative activity (ratio to wild type); higher = more cleavage; in vitro, sequencing; the parent is a self-cleaving ribozyme.
For G36A U81C A117G U130C A140G, the self-cleavage was 0.61.
For U1C U39A A67G U73C the value was 1.02; for A59U A92G U96C U143C, 0.14.
Turning to U12A U39C A129C, the self-cleavage came out at 1.38.
For A67U A92G U112C A138U the value was 0.1.
In the case of A24G A64G U96C, the self-cleavage came out at 0.43.
As for U5A A77U C146U, the figure is 1.06; as for U39C A77G A140G A142G, 2.43; as for U13C U62G U112A A121G, 0.
As for G7U A77G U115A, the self-cleavage amounted to 2.22.
With U9A A77U U104C, the self-cleavage came out at 0.37.
For U62C U73A A140G the value was 0.01; for G8C U108A A138G, 1.5.
As for A22U U45A A57G G60A U115A A138U A140C A142G, the figure is 0.
For C28G A31G U102C the value was 0.92; for U9A U52A A78G, 2.12.
Regarding U12C A50G U62C, the self-cleavage came to 0.
As for C3G A6G U52A U134G A136G, the figure is 1.97; as for U100A U108C G127A, 1.23; as for G10A U104G U115C, 1.53.
For A6U A22G A77G C95U the value was 0.8.
For the variant A43G A65G G72C, the self-cleavage is 0.
On to A69G A78U A129G, for which the self-cleavage came to 0.8.
For U62A U81C A141G the value was 0.
For A2G U5C U13C G35A the value was 1.53.
For A2G A43G A107G U130C the value was 0.92.
In the case of U14A U20C A77U A79G U108C, the self-cleavage was 1.02.
For U87A U96C C101U U115A the value was 0.09.
As for A67G A78G U85A, the figure is 0.14.
In the case of A2G A78U A140G, the self-cleavage was determined as 2.05.
Turning to G33A G60U U132C, the self-cleavage was determined as 0.12.
In the case of U12C U100A U112A, the self-cleavage stood at 0.46.
With A64G U108C A124G, the self-cleavage was found to be 0.
For A124G C133A U134C the value was 1.2; for A64G A94U U104C A136G A138G, 0; for U62A U119C A136G, 0.02.
As for U13C A64G U108C A129U A142G, the self-cleavage amounted to 0.47.
As for U46C G60A A92G U96A, the figure is 0.04; as for U14C C56U C111U A117U A121G U130C, 0.24.
In the case of A2U A43G U134C, the self-cleavage came to 0.74.
For U26C G54U U143A the value was 0.08; for A24C U87G U100C C111U, 0; for A2G G75A A79G U104C A124U, 0.22.
For U15C A43G A136U the value was 1.02; for U39G U46C A79G, 0.57; for U26A A94U U104C U108C, 0.11.
U23A A94G A142G: the self-cleavage turned out to be 1.17.
As for U23C A24G A65C, the figure is 0; as for U12C U47C U85C U104C, 1.31; as for A2G C28U U132A U134C A142G, 0.95.
As for U1C U20C A94G, the figure is 0.1; as for U15C C18U A69G, 0.96; as for A107U A117G U130C, 1.31.
For A31U A57G U108C the value was 2.3.
As for A43G G44U U96C U109C A117G, the self-cleavage is 0.84.
For G35A A59U A138G the value was 0.79; for A2G U12C A42G A121G, 0.
As for C28U U52C G125A G137U, the figure is 0.11; as for U12C U29A U52A U100C, 0.56; as for G44A A67U A77G, 0.14.
For the variant A42G A79G U143C, the self-cleavage turned out to be 1.44.
For U9A U13C A65G C113U U119C C131U the value was 0.11; for A6U U14C U15C G35U A57G, 1.37; for C51U G83A U91C, 0.21.
For U13C U15A G25U U39C the value was 0.34; for U14G U26C A142G, 0; for U39C G55A U130C A136G, 0.43.
For U9C U87C A124U the value was 2.12; for U14C A22G U47G A142G, 1.25; for U1C U5C G74U, 1.09.
Consider U9A U85A U115A A124G U143A, for which the self-cleavage came out at 0.21.
As for U12A U85C U108C, the figure is 0.85; as for G27A A77U U115C U119C, 0.62; as for U12G U15C C19U C63U U115C A124G, 0.49.
In the case of G4A G54A U109C, the self-cleavage was determined as 0.14.
As for C38A C51U U143G, the figure is 0.9; as for U45C A59G C68U, 0.08.
As for U29C A57U A67C A129U, the figure is 0; as for U39A U87A U112C U132C, 0.06; as for C19A A50U A77G U91C, 0.55.
As for U20A A136G U143C, the figure is 1.72.
On to U13C G27A U62C, for which the self-cleavage amounted to 0.03.
For G8U U14C U96C the value was 0.16; for A2G U14C U108C U132C, 0; for A6G U9A C110U A124G U132C, 1.36.
As for U15C U46C U62A A94C, the figure is 0.12; as for G36A U104C U108C G139A, 1.79; as for U26C A77G A78G U143C, 1.53.
With U46A G55A U100C A138G, the self-cleavage stood at 0.11.
As for G27A U112C A140G A142G, the figure is 0.12; as for U46A A59G U104C, 0.36; as for U15C C51U A69G U119A, 0.5.
For U9A A24U A65U U102A the value was 0.15.
For the variant A50G U73A A138U, the self-cleavage came out at 0.67.
As for U26G U45C G48A U100A A117G A136G, the figure is 0.66; as for C63U U87A U119C, 0.01.
For U26C U46C U108C A124U G126A the value was 1.53.
As for U20C A31G U52C G93C, the figure is 0.18; as for U12C A65G U100C A142G, 0.
As to U29A A42G A79G, the self-cleavage amounted to 1.6.
Regarding U52A U85G A94U A124U U132C A138G A141G, the self-cleavage was determined as 0.
For C3U A94G U134C the value was 0; for U12C U81C U104C, 1.41; for U13C A30G U108C U143C, 1.88.
As for A65U U87A U104C G114A, the figure is 0.02.
For G21A U104A C116U the value was 0.79.
Turning to G8C U47C A94G C131A, the self-cleavage is 0.56.
As to U39C A42G A64U A138G, the self-cleavage came to 0.55.
As for G7C U14C A50U, the figure is 0.96; as for C19A A22G U47C U100C, 0.82; as for U5C C38U A77G, 0.33.
Regarding U26C A42G U112A, the self-cleavage was 1.39.
As for G33A U73C U109C, the self-cleavage worked out at 1.34.
Consider U45C U100C U109C, for which the self-cleavage was 1.7.
As for U14C U29C A64C, the figure is 0.47.
Regarding A59G G89A U96A, the self-cleavage is 0.03.
As for U23A U46C U91A A141G, the figure is 0.77.
As to A2G C19A C99U, the self-cleavage stood at 0.64.
In the case of U46A C118U C120U, the self-cleavage was 1.14.
As for A77G U81C A117U, the figure is 2.38; as for U62C U109C U134G, 0.11; as for A42G A77G U115A, 1.91.
For A57U U87G A117G the value was 0.04; for U1C A69U A79C U132C, 0; for A78U A129U U134A, 1.63.
For C51U U119C A141G the value was 2.35; for U12G G75C A140G, 0.61.
For the variant U13C U47A A65G A77G A107G, the self-cleavage is 0.54.
For U47A U52A U81C G114A the value was 1.01.
In the case of G40A A50G U134A, the self-cleavage is 0.64.
As for G7U U14C G54A A67G, the figure is 0.33; as for A6G U13C U20C U115C A142G, 0; as for C19U U39C U115C, 2.63.
For A57U U109A U119C the value was 0.13.
As for G40A U112C U115C U132A, the figure is 0.86; as for G40U U73C U96A C123A A140U, 0.06; as for U102C U115A A124C A129U, 1.36.
For U9C U13C A69U A124U A129U A141G, the self-cleavage is 0.11.
U26C G36C U52A C99A: the self-cleavage was found to be 0.08.
For A24G U39A A65G U108A A136U the value was 0.1; for U52A U62C U102A U132C, 0.
For U14C A43G U52A U132A the value was 0.7; for A42U U47A U87C U102C U108C A129U U134A A136U, 0.37.
As to U9C G55A U108C G125U A129U A142G, the self-cleavage amounted to 0.22.
For U12C A57G U62C U85A the value was 0.09.
Take U13C U20G A31U C37U: the self-cleavage was found to be 1.4.
Regarding U26A U81A A129U, the self-cleavage amounted to 1.03.
As for U13A U14C G105U U109C, the figure is 0.79.
As for C3U A31G A65G, the figure is 0.56; as for G34U U39C A141G, 1.09; as for A24U U39C G80A G126C, 2.49.
As for U15C U26A U47C G58A A138C, the figure is 0.06; as for U12G U132A A136U, 1.16.
Consider U12G A57G A59G U96C, for which the self-cleavage turned out to be 0.84.
As for U13C A50G A136U A140G, the figure is 1.24.
As to G11A U26C A57G U91C, the self-cleavage was 0.68.
As for C37U U39C A129G, the figure is 1.29; as for U14C U85A U143C, 0.16.
With U9C U26G G48A A67G, the self-cleavage was determined as 0.51.
In the case of A31U C98G A138U A142G, the self-cleavage turned out to be 0.13.
As for U15C U115C A129G, the figure is 2.48; as for U9A A57G A140G, 0.92; as for U23A A124U A142G, 1.36.
Regarding A117U U119C U143A, the self-cleavage came to 1.2.
For U39C A79G U119C A142G the value was 0.92; for U12G U14C U143C, 0.89.
In the case of U62A G83A U87G, the self-cleavage was 0.04.

The values above are taken from the RNAGym collection of RNA variant scans (doi:10.7554/elife.90254).
